# Laboratory results as given in the supplement of paper PMC8728848.
# The list shows a part of the results.
# B1: Na-CTL-1 (Necator americanus) (protein)
# chain: MQRSFLLLLVVLAGAWAVNTTIPLKLMGGFTPMKYQCVGRVSDIWADVLFLIESSDMITKSGFRQVIAFITATTKKMTIGQDEKQTRVGFITYGEEAKLIYDLDHWRSTEKLSDLVQKIPYVKSSGTNIAAAIALANKVFNSPTHRPNVPKVMVIVANGLKKGSQNPIPVATAFKDFGGIIITIEYTQYDNIQVPILKKIASEGYNIRSNDEDFSVRTLTNMLLQANCFCPDHYVPFRVNNPEFGCFVTAKIPSMWRDAAEMCRAVEEGKLVKVENEEKAAFIMKLVGPKKEAWIGLRYYGNKFQWTDGTKLNADDFNLWPEDIKELNGPHCVSMYQDQKDKKYYWRAGKCLEDMRYVCEVQPCSASNYCSEPVFMYRQKHRALLPAPPPPPN
# Legend:
# Experiment in all cases: glycan array binding signal (z-score within array); higher = stronger binding
# Details in all cases: glycan notation: IUPAC condensed, linker removed
# [1] = molecular target: Fuc(a1-2)Gal6S(b1-3)GlcNAc6S
# Procedure, shortened: (§1)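 The Consortium for Functional Glycomics database supplied 3228 glycan arrays, of which those lacking an available protein sequence were dropped. The binding signal, a within-array Z-score, was averaged across arrays of the same protein sequence and across linkers. Negative scores can be read as non-binding.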
# [2] = molecular target: Fuc(a1-2)Gal6S(b1-4)Glc
# Procedure, shortened: as §1
# [3] = molecular target: Fuc(a1-2)Gal6S(b1-4)Glc6S
# Procedure, shortened: as §1
# [4] = molecular target: Fuc(a1-2)[Gal(a1-3)]Gal
# Procedure, shortened: as §1
# [5] = molecular target: Fuc(a1-2)[Gal(a1-3)]Gal(b1-3)GalNAc
# Procedure, shortened: as §1
# [6] = molecular target: Fuc(a1-2)[Gal(a1-3)]Gal(b1-3)GalNAc(b1-3)Gal(a1-4)Gal(b1-4)Glc
# Procedure, shortened: as §1
# [7] = molecular target: Fuc(a1-2)[Gal(a1-3)]Gal(b1-3)GlcNAc
# Procedure, shortened: as §1
# [8] = molecular target: Fuc(a1-2)[Gal(a1-3)]Gal(b1-3)GlcNAc(b1-2)Man(a1-3)[Fuc(a1-2)[Gal(a1-3)]Gal(b1-3)GlcNAc(b1-2)Man(a1-6)]Man(b1-4)GlcNAc(b1-4)GlcNAc
# Procedure, shortened: as §1
# [9] = molecular target: Fuc(a1-2)[Gal(a1-3)]Gal(b1-3)GlcNAc(b1-2)Man(a1-3)[Fuc(a1-2)[Gal(a1-3)]Gal(b1-3)GlcNAc(b1-2)Man(a1-6)]Man(b1-4)GlcNAc(b1-4)[Fuc(a1-6)]GlcNAc
# Procedure, shortened: as §1
# [10] = molecular target: Fuc(a1-2)[Gal(a1-3)]Gal(b1-3)GlcNAc(b1-3)GalNAc
# Procedure, shortened: as §1
# [11] = molecular target: Fuc(a1-2)[Gal(a1-3)]Gal(b1-3)GlcNAc(b1-6)GalNAc
# Procedure, shortened: as §1
# [12] = molecular target: Fuc(a1-2)[Gal(a1-3)]Gal(b1-4)Glc
# Procedure, shortened: as §1
# [13] = molecular target: Fuc(a1-2)[Gal(a1-3)]Gal(b1-4)GlcNAc
# Procedure, shortened: as §1
# [14] = molecular target: Fuc(a1-2)[Gal(a1-3)]Gal(b1-4)GlcNAc(b1-2)Man
# Procedure, shortened: as §1
# [15] = molecular target: Fuc(a1-2)[Gal(a1-3)]Gal(b1-4)GlcNAc(b1-2)Man(a1-3)[Fuc(a1-2)[Gal(a1-3)]Gal(b1-4)GlcNAc(b1-2)Man(a1-6)]Man(b1-4)GlcNAc(b1-4)GlcNAc
# Procedure, shortened: as §1
# [16] = molecular target: Fuc(a1-2)[Gal(a1-3)]Gal(b1-4)GlcNAc(b1-2)Man(a1-3)[Fuc(a1-2)[Gal(a1-3)]Gal(b1-4)GlcNAc(b1-2)Man(a1-6)]Man(b1-4)GlcNAc(b1-4)[Fuc(a1-6)]GlcNAc
# Procedure, shortened: as §1
# [17] = molecular target: Fuc(a1-2)[Gal(a1-3)]Gal(b1-4)GlcNAc(b1-3)GalNAc
# Procedure, shortened: as §1
# [18] = molecular target: Fuc(a1-2)[Gal(a1-3)]Gal(b1-4)GlcNAc(b1-3)[Fuc(a1-2)[Gal(a1-3)]Gal(b1-4)GlcNAc(b1-6)]GalNAc
# Procedure, shortened: as §1
# [19] = molecular target: Fuc(a1-2)[Gal(a1-3)]Gal(b1-4)GlcNAc(b1-6)GalNAc
# Procedure, shortened: as §1
# [20] = molecular target: Fuc(a1-2)[Gal(a1-3)]Gal(b1-4)[Fuc(a1-3)]Glc
# Procedure, shortened: as §1
# [21] = molecular target: Fuc(a1-2)[Gal(a1-3)]Gal(b1-4)[Fuc(a1-3)]GlcNAc
# Procedure, shortened: as §1
# [22] = molecular target: Fuc(a1-2)[Gal(a1-3)]Gal(b1-4)[Fuc(a1-3)]GlcNAc(b1-3)GalNAc
# Procedure, shortened: as §1
# [23] = molecular target: Fuc(a1-2)[Gal(a1-4)]Gal(b1-4)GlcNAc
# Procedure, shortened: as §1
# [24] = molecular target: Fuc(a1-2)[GalNAc(a1-3)]Gal
# Procedure, shortened: as §1
# [25] = molecular target: Fuc(a1-2)[GalNAc(a1-3)]Gal(b1-3)GalNAc(a1-3)[Fuc(a1-2)]Gal(b1-4)GlcNAc
# Procedure, shortened: as §1
# [26] = molecular target: Fuc(a1-2)[GalNAc(a1-3)]Gal(b1-3)GalNAc(b1-3)Gal(a1-4)Gal(b1-4)Glc
# Procedure, shortened: as §1
# [27] = molecular target: Fuc(a1-2)[GalNAc(a1-3)]Gal(b1-3)GlcNAc
# Procedure, shortened: as §1
# [28] = molecular target: Fuc(a1-2)[GalNAc(a1-3)]Gal(b1-3)GlcNAc(b1-2)Man(a1-3)[Fuc(a1-2)[GalNAc(a1-3)]Gal(b1-3)GlcNAc(b1-2)Man(a1-6)]Man(b1-4)GlcNAc(b1-4)GlcNAc
# Procedure, shortened: as §1
# [29] = molecular target: Fuc(a1-2)[GalNAc(a1-3)]Gal(b1-3)GlcNAc(b1-2)Man(a1-3)[Fuc(a1-2)[GalNAc(a1-3)]Gal(b1-3)GlcNAc(b1-2)Man(a1-6)]Man(b1-4)GlcNAc(b1-4)[Fuc(a1-6)]GlcNAc
# Procedure, shortened: as §1
# [30] = molecular target: Fuc(a1-2)[GalNAc(a1-3)]Gal(b1-3)GlcNAc(b1-3)GalNAc
# Procedure, shortened: as §1
# [31] = molecular target: Fuc(a1-2)[GalNAc(a1-3)]Gal(b1-3)GlcNAc(b1-6)GalNAc
# Procedure, shortened: as §1
# [32] = molecular target: Fuc(a1-2)[GalNAc(a1-3)]Gal(b1-4)Glc
# Procedure, shortened: as §1
# [33] = molecular target: Fuc(a1-2)[GalNAc(a1-3)]Gal(b1-4)GlcNAc
# Procedure, shortened: as §1
# [34] = molecular target: Fuc(a1-2)[GalNAc(a1-3)]Gal(b1-4)GlcNAc(b1-2)Man
# Procedure, shortened: as §1
# [35] = molecular target: Fuc(a1-2)[GalNAc(a1-3)]Gal(b1-4)GlcNAc(b1-2)Man(a1-3)[Fuc(a1-2)[GalNAc(a1-3)]Gal(b1-4)GlcNAc(b1-2)Man(a1-6)]Man(b1-4)GlcNAc(b1-4)GlcNAc
# Procedure, shortened: as §1
# [36] = molecular target: Fuc(a1-2)[GalNAc(a1-3)]Gal(b1-4)GlcNAc(b1-2)Man(a1-3)[Fuc(a1-2)[GalNAc(a1-3)]Gal(b1-4)GlcNAc(b1-2)Man(a1-6)]Man(b1-4)GlcNAc(b1-4)[Fuc(a1-6)]GlcNAc
# Procedure, shortened: as §1
# [37] = molecular target: Fuc(a1-2)[GalNAc(a1-3)]Gal(b1-4)GlcNAc(b1-3)Gal(b1-4)GlcNAc
# Procedure, shortened: as §1
# [38] = molecular target: Fuc(a1-2)[GalNAc(a1-3)]Gal(b1-4)GlcNAc(b1-3)Gal(b1-4)GlcNAc(b1-3)Gal(b1-4)GlcNAc
# Procedure, shortened: as §1
# [39] = molecular target: Fuc(a1-2)[GalNAc(a1-3)]Gal(b1-4)GlcNAc(b1-3)GalNAc
# Procedure, shortened: as §1
# [40] = molecular target: Fuc(a1-2)[GalNAc(a1-3)]Gal(b1-4)GlcNAc(b1-3)[Fuc(a1-2)[GalNAc(a1-3)]Gal(b1-4)GlcNAc(b1-6)]GalNAc
# Procedure, shortened: as §1
# [41] = molecular target: Fuc(a1-2)[GalNAc(a1-3)]Gal(b1-4)GlcNAc(b1-6)GalNAc
# Procedure, shortened: as §1
# [42] = molecular target: Fuc(a1-2)[GalNAc(a1-3)]Gal(b1-4)[Fuc(a1-3)]GlcNAc
# Procedure, shortened: as §1
# [43] = molecular target: Fuc(a1-2)[GalNAc(a1-3)]Gal(b1-4)[Fuc(a1-3)]GlcNAc(b1-3)GalNAc
# Procedure, shortened: as §1
# [44] = molecular target: Fuc(a1-2)[GalNAc(a1-4)]Gal(b1-4)GlcNAc
# Procedure, shortened: as §1
# [45] = molecular target: Fuc(a1-2)[GalNAc(b1-3)]Gal
# Procedure, shortened: as §1
binder,measurement,setting,value
B1,glycan array binding signal (z-score),[1],0.309
same,glycan array binding signal (z-score),[2],0.006
same,glycan array binding signal (z-score),[3],0.724
same,glycan array binding signal (z-score),[4],0.515
same,glycan array binding signal (z-score),[5],-0.176
same,glycan array binding signal (z-score),[6],-0.188
same,glycan array binding signal (z-score),[7],-0.198
same,glycan array binding signal (z-score),[8],-0.412
same,glycan array binding signal (z-score),[9],-0.485
same,glycan array binding signal (z-score),[10],-0.06
same,glycan array binding signal (z-score),[11],-0.471
same,glycan array binding signal (z-score),[12],0.185
same,glycan array binding signal (z-score),[13],-0.525
same,glycan array binding signal (z-score),[14],-0.401
same,glycan array binding signal (z-score),[15],0.031
same,glycan array binding signal (z-score),[16],0.317
same,glycan array binding signal (z-score),[17],-0.647
same,glycan array binding signal (z-score),[18],2.8
same,glycan array binding signal (z-score),[19],-0.539
same,glycan array binding signal (z-score),[20],-0.734
same,glycan array binding signal (z-score),[21],-0.339
same,glycan array binding signal (z-score),[22],0.08
same,glycan array binding signal (z-score),[23],0.263
same,glycan array binding signal (z-score),[24],-0.379
same,glycan array binding signal (z-score),[25],-0.489
same,glycan array binding signal (z-score),[26],0.014
same,glycan array binding signal (z-score),[27],-0.302
same,glycan array binding signal (z-score),[28],-0.509
same,glycan array binding signal (z-score),[29],-0.547
same,glycan array binding signal (z-score),[30],0.071
same,glycan array binding signal (z-score),[31],-0.297
same,glycan array binding signal (z-score),[32],-0.474
same,glycan array binding signal (z-score),[33],-0.289
same,glycan array binding signal (z-score),[34],-0.44
same,glycan array binding signal (z-score),[35],-0.549
same,glycan array binding signal (z-score),[36],-0.52
same,glycan array binding signal (z-score),[37],-0.187
same,glycan array binding signal (z-score),[38],0.261
same,glycan array binding signal (z-score),[39],-0.291
same,glycan array binding signal (z-score),[40],-0.755
same,glycan array binding signal (z-score),[41],-0.318
same,glycan array binding signal (z-score),[42],-0.16
same,glycan array binding signal (z-score),[43],14.8
same,glycan array binding signal (z-score),[44],0.383
same,glycan array binding signal (z-score),[45],-0.162
